According to the supplement of paper PMC12217912:
Some of the results follow. Sequences were assembled here from the parent chain. Values near 0.05 are background.

B1: TEV protease; numbered along this chain (parent)
chain: MGESLFKGPRDYNPISSSICHLTNESDGHTTSLYGIGFGPFIITNKHLFRRNNGTLVVQSLHGVFKVKDTTTLQQHLVDGRDMIIIRMPKDFPPFPQKLKFREPQREERICLVTTNFQTKSMSSMVSDTSCTFPSGDGIFWKHWIQTKDGQCGSPLVSTRDGFIVGIHSASNFTNTNNYFTSVPKNFMELLTNQEAQQWVSGWRLNADSVLWGGHKVFMVKPEEPFQPVKEATQL

Variants of: B1
Experiment: raw area under fraction-flipped curve 0-4 h after induction (AUC4h, not background-subtracted), DNA-recorder readout of cleavage of the substrate (dimensionless); higher = more cleavage of the substrate by the protease variant
Conditions: temperature: 34 °C; time window: 0-4 h after rhamnose induction
Description: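 In vivo DNA recorder in E. coli TOP10(DE3) ΔrhaA at 34 °C. Each TEVp single-site mutant (parent TEVp 0) is paired with a single-site variant of the 7-mer TEVs (canonical ENLYFQ|S). The substrate sits between flexible linkers in a Bxb1-sfGFP-TEVs-SsrA fusion, so cleavage stabilises Bxb1 and speeds flipping of a recombination array, read by NGS. The value is the raw area under the fraction-flipped curve over 0-4 h after rhamnose induction (AUC4h), with ≥20 reads per time point. It is not background-subtracted; inactive controls average about 0.047.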
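Also: Bxb1 expression induced with 0.2% (w/v) L-rhamnose at OD600 near 0.5, cultures sampled hourly, flipped fraction per protease–substrate barcode pair counted by paired-end Illumina sequencing.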

Variant | area with substrate EALYFQS | area with substrate ECLYFQS | area with substrate EDLYFQS | area with substrate EELYFQS | area with substrate EHLYFQS | area with substrate EILYFQS | area with substrate EKLYFQS | area with substrate ELLYFQS | area with substrate EMLYFQS | area with substrate EPLYFQS | area with substrate EQLYFQS | area with substrate ERLYFQS | area with substrate ESLYFQS | area with substrate ETLYFQS | area with substrate EVLYFQS | area with substrate EYLYFQS | area with substrate EFLYFQS | area with substrate EWLYFQS | area with substrate EGLYFQS
I36H | 0.0501 | 0.0403 | 0.0573 | 0.062 | 0.0428 | 0.0358 | 0.0452 | 0.049 | 0.043 | 0.0466 | 0.0332 | 0.0476 | 0.0537 | 0.0524 | 0.0454 | 0.0485 | – | – | –
I36S | 0.0699 | 0.0686 | 0.0731 | 0.084 | 0.0599 | 0.0546 | 0.0588 | 0.0674 | 0.0756 | – | 0.0868 | 0.0748 | 0.0775 | 0.0788 | 0.0658 | 0.0674 | 0.0726 | 0.0696 | –
I36M | 0.104 | 0.0932 | 0.127 | 0.1 | 0.0933 | 0.0923 | – | – | 0.0992 | 0.115 | 0.103 | – | 0.084 | – | 0.0813 | 0.101 | – | 0.0913 | –
I36Y | 0.0528 | 0.0529 | 0.0583 | – | 0.0518 | 0.0441 | – | – | 0.0363 | – | – | – | 0.0649 | – | 0.05 | – | 0.0526 | – | 0.0771
I36T | 0.101 | 0.0875 | 0.111 | – | 0.0885 | 0.0785 | 0.0768 | 0.0823 | 0.094 | 0.115 | 0.107 | 0.0559 | 0.0836 | – | 0.0787 | 0.0898 | – | 0.0719 | 0.0605
I36W | 0.0838 | 0.0571 | 0.0736 | 0.0661 | – | 0.0608 | 0.0508 | 0.0528 | 0.053 | 0.0606 | 0.0755 | – | 0.0587 | 0.066 | 0.0591 | 0.0611 | – | – | 0.0568
I43L | 0.111 | 0.105 | 0.0984 | 0.117 | – | 0.0903 | 0.122 | 0.0815 | 0.103 | – | 0.121 | 0.0969 | 0.0761 | 0.101 | 0.101 | 0.109 | – | 0.0919 | 0.0894
I43Q | 0.0458 | 0.0502 | 0.0534 | 0.0511 | 0.0435 | 0.045 | 0.0336 | 0.0421 | 0.0528 | – | 0.0477 | 0.0856 | 0.0451 | – | 0.0465 | 0.0313 | – | 0.0483 | –
I43A | 0.0994 | 0.0642 | 0.0879 | 0.0997 | 0.0812 | 0.0687 | 0.0811 | 0.0721 | 0.0875 | 0.0917 | 0.0806 | 0.082 | 0.0758 | 0.102 | 0.0575 | 0.0609 | 0.0793 | 0.0675 | –
I43S | 0.0737 | 0.0494 | 0.0523 | 0.0543 | 0.0896 | 0.0814 | 0.0481 | 0.0525 | – | 0.0515 | 0.0559 | 0.0651 | 0.0564 | – | 0.0554 | 0.0496 | 0.0626 | 0.0484 | –
I43N | 0.0471 | 0.0281 | 0.0528 | – | 0.0451 | 0.052 | 0.0493 | 0.0508 | 0.0581 | 0.0551 | 0.0487 | 0.0578 | 0.0376 | 0.0494 | – | 0.0413 | 0.0328 | 0.0491 | –
I43E | 0.041 | 0.0269 | 0.0407 | – | 0.0328 | 0.0419 | 0.0518 | 0.0366 | 0.0502 | 0.0401 | 0.0776 | 0.0491 | 0.0523 | 0.0517 | 0.0434 | – | 0.0447 | – | –
N45T | 0.0822 | 0.0786 | 0.0977 | – | 0.0515 | 0.0616 | 0.0807 | 0.0608 | – | 0.112 | 0.0873 | 0.0733 | 0.0831 | 0.0833 | 0.0697 | 0.0744 | 0.0979 | 0.0718 | 0.0648
H47E | 0.0656 | 0.0602 | 0.0565 | 0.0709 | 0.0675 | 0.0645 | – | 0.0708 | 0.0607 | 0.0462 | 0.0488 | 0.0349 | 0.057 | – | 0.0451 | 0.0453 | – | – | –
H47C | 0.0573 | 0.062 | 0.0648 | 0.0383 | – | 0.0558 | 0.0726 | 0.0636 | – | – | – | 0.0583 | 0.0577 | 0.0376 | 0.0599 | – | 0.0544 | – | –
L33I | 0.0824 | 0.098 | 0.114 | 0.114 | 0.0936 | 0.065 | – | 0.0711 | 0.0822 | 0.0867 | – | 0.0734 | 0.0833 | 0.0824 | 0.0709 | 0.0826 | 0.0855 | 0.0696 | 0.0715
L33M | 0.08 | 0.0702 | 0.101 | 0.0851 | – | 0.0701 | 0.0672 | 0.0671 | 0.098 | 0.0768 | 0.0829 | 0.0642 | 0.0816 | 0.0774 | 0.0641 | 0.0591 | – | 0.0793 | 0.0754
G39E | 0.0619 | 0.0386 | 0.043 | 0.0455 | – | 0.0497 | – | 0.0372 | 0.0383 | – | 0.037 | – | 0.046 | – | 0.0537 | 0.0415 | 0.0408 | 0.0458 | 0.0308
G39M | 0.0445 | 0.0448 | 0.0434 | 0.0406 | 0.0462 | 0.0413 | 0.0409 | 0.0344 | 0.0363 | 0.0413 | 0.0615 | 0.0377 | 0.0366 | – | 0.042 | 0.0538 | – | 0.0407 | 0.0406
G39I | 0.0479 | 0.0399 | 0.0531 | 0.0442 | – | 0.0393 | – | 0.0413 | – | 0.0481 | 0.0425 | 0.0381 | 0.0503 | 0.0392 | 0.0298 | – | – | 0.047 | 0.0329
G39R | 0.059 | 0.0503 | 0.0538 | 0.044 | 0.0494 | 0.0396 | 0.041 | – | 0.0486 | 0.0542 | 0.0594 | 0.0305 | 0.0423 | 0.0509 | 0.0393 | 0.0443 | – | 0.0821 | –
G37T | 0.0959 | 0.0557 | 0.0282 | 0.0966 | – | 0.0699 | 0.104 | 0.0487 | – | – | 0.0793 | 0.0768 | 0.0808 | 0.106 | 0.0954 | – | – | – | 0.0593
G37W | 0.0825 | 0.0787 | 0.0697 | 0.0633 | 0.0814 | – | 0.0854 | – | – | – | 0.0959 | 0.0701 | 0.0794 | 0.0869 | 0.0769 | 0.0667 | – | 0.0625 | 0.0801
